IC50 is the fitted dose that halves viability relative to control wells, and lower means more sensitive; a limit (>, <) means that the fit lies beyond the doses tested. The AUC spans the tested range (256-fold, ending at the top dose) of the same fit; values near 1 show little effect. Any top dose called inferred was calculated from the reported fits.

What is called IC50 is the concentration at which inhibition is half-maximal.

Compound in this assay: O=C1NC(=O)/C(=C\c2ccc3nccnc3c2)S1 [AS605240]
Nature of the assay: Viability of human cancer cell lines after 72 h of drug (GDSC screen). The conditions noted are these: top dose inferred. The method, then: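 Human cancer cell lines in 384-well plates, medium with 10% serum, drug for 72 h over a 256-fold dose range (nine 2-fold or five 4-fold steps up to the top dose). Adherent lines were fixed and stained with the nucleic acid dye Syto60, suspension lines read with resazurin; signal relative to control wells, capped at 0 and 100%. One two-parameter sigmoid per drug and line, fitted in a mixed model over all curves with the slope shared within a line.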
Take “TGW (neuroblastoma, adherent, top dose 20 µM)”: the AUC was 0.794 and the IC50 amounted to 7.76 µM.
As for “THP-1 (acute myeloid leukaemia, suspension, top dose 20 µM)”, the AUC turned out to be 0.589 and the 50% inhibitory concentration (IC50) was found to be 2.14 µM.
As for TK10 (kidney, adherent, top dose 20 µM), the AUC turned out to be 0.953 and the IC50 was greater than 20 µM.
On to “TK (B-cell lymphoma, suspension, top dose 20 µM)”, for which the AUC was 0.881 and the 50% inhibitory concentration (IC50) was found to be 17.7 µM.
In the same order, the values of “TMK-1 (stomach, adherent, top dose 20 µM)” are 0.978 and greater than 20 µM.
Turning to “TOV-21G (ovary, adherent, top dose 20 µM)”, the AUC stood at 0.946 and the half-inhibitory concentration (IC50) was greater than 20 µM.
In the case of “TOV-112D (ovary, adherent, top dose 20 µM)”, the AUC was determined as 0.764 and the half-inhibitory concentration (IC50) came to 7.29 µM.
Turning to “TT2609-C02 (thyroid, adherent, top dose 20 µM)”, the AUC stood at 0.905 and the IC50 was greater than 20 µM.
For the cell line TT (thyroid, adherent, top dose 20 µM), the AUC was determined as 0.973 and the half-inhibitory concentration (IC50) was greater than 20 µM.
On to “TUR (B-cell lymphoma, suspension, top dose 20 µM)”, for which the AUC worked out at 0.924 and the 50% inhibitory concentration (IC50) is greater than 20 µM.
As for “TYK-nu (ovary, adherent, top dose 20 µM)”, the AUC was found to be 0.902 and the concentration for half-maximal inhibition (IC50) is greater than 20 µM.
As for U031 (kidney, adherent, top dose 20 µM), the AUC worked out at 0.893 and the IC50 is greater than 20 µM.
Turning to U251 (glioma, adherent, top dose 20 µM), the AUC is 0.873 and the 50% inhibitory concentration (IC50) was determined as 17.8 µM.
The matching figures for “U-2-OS (osteosarcoma, adherent, top dose 20 µM)”: 0.978 and greater than 20 µM.
“U-87-MG (glioma, adherent, top dose 20 µM)”: the AUC amounted to 0.957 and the concentration for half-maximal inhibition (IC50) was greater than 20 µM.
For the cell line “U-118-MG (glioma, adherent, top dose 20 µM)”, the AUC was 0.985 and the IC50 is greater than 20 µM.
With “U-698-M (B-cell leukaemia, suspension, top dose 20 µM)”, the AUC amounted to 0.938 and the half-inhibitory concentration (IC50) is greater than 20 µM.
Regarding “UACC-62 (melanoma, adherent, top dose 20 µM)”, the AUC worked out at 0.691 and the half-inhibitory concentration (IC50) was 4.26 µM.
Turning to “UACC-257 (melanoma, adherent, top dose 20 µM)”, the AUC was determined as 0.469 and the IC50 is 1.01 µM.
For “UACC-812 (breast, adherent, top dose 20 µM)”, the AUC came to 0.927 and the IC50 is greater than 20 µM.
“UACC-893 (breast, adherent, top dose 20 µM)”: the AUC is 0.84 and the 50% inhibitory concentration (IC50) was greater than 20 µM.
In the same order, the values of “UM-UC-3 (bladder, adherent, top dose 20 µM)” are 0.873 and 17.2 µM.
For the cell line “UMC-11 (lung carcinoid, adherent, top dose 20 µM)”, the AUC was determined as 0.937 and the 50% inhibitory concentration (IC50) is greater than 20 µM.
In the same order, the values of “UWB1.289 (ovary, adherent, top dose 20 µM)” are 0.934 and greater than 20 µM.
Take “VA-ES-BJ (soft tissue, adherent, top dose 20 µM)”: the AUC was found to be 0.942 and the IC50 was greater than 20 µM.
Consider “VAL (B-cell lymphoma, suspension, top dose 20 µM)”, for which the AUC is 0.871 and the IC50 is 19 µM.
On to “VCaP (prostate, adherent, top dose 20 µM)”, for which the AUC was found to be 0.679 and the IC50 stood at 4.04 µM.
As to “VM-CUB-1 (bladder, adherent, top dose 20 µM)”, the AUC came to 0.988 and the half-maximal inhibitory concentration (IC50) is greater than 20 µM.
Turning to “VMRC-MELG (melanoma, adherent, top dose 20 µM)”, the AUC was 0.974 and the 50% inhibitory concentration (IC50) is greater than 20 µM.

These data come from the supplement of paper PMC4967469.
